PubChem BioAssay AID504845 (National Center for Advancing Translational Sciences (NCATS), 2011)
The whole screen tested about 390,000 compounds, of which about 150 (0.038%) were called active. This list was built around the results that the source calls inconclusive (neither active nor inactive); the mix of calls is not that of the screen. Calls follow the shape of the dose curve; as a rule, active = well fitted inhibition curve with a large enough effect; inconclusive = small, poorly fitted or top-dose-only effect; inactive = no such curve, though single readings can be large or run the other way. A potency beside an inconclusive call is a rough fit, not a confirmed value.

Biological target: Regulator of G-protein signaling 4 (Homo sapiens) (UniProt P49798)
UniProt P49798, sequence (P49798 whole entry, looked up): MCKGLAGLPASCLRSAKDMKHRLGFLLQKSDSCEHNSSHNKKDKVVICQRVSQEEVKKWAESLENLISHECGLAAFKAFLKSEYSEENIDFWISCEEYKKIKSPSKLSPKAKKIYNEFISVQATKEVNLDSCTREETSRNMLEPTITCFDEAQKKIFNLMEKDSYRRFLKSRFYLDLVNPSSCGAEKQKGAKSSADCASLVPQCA
Experiment: Inhibitors of Regulator of G Protein Signaling (RGS) 4: qHTS; also: nearly all actives have a fitted effect of over 75% in size
Settings: Transcreener GDP fluorescence polarization, RGS4-accelerated GTP hydrolysis; series mostly up to 114 µM; activity change, negative = inhibition: at the top concentration
Summary of the method: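 MLSMR compounds (23 nl, pin-transferred) preincubated 10 min at room temperature with a 500nM (2x) first reagent, then RGS4 at 900nM (2x) plus Transcreener GDP mix added; fluorescence polarization (620/688 nm) read before and after 90 min at 30 °C.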
% is scaled to controls: 0 for no effect and ±100 for the full control effect; potency is read from the fitted curve at half-maximal effect; tags tell the direction and shape of the fitted curve.

Compound	activity change, negative = inhibition	Potency
Fc1ccc2cnc(-c3ccccc3)c(-c3cc(C(F)(F)F)cc(C(F)(F)F)c3)c2c1	inactive: -26.9%	
CC(C)C[C@@H](CNCC(=O)[C@H](C)NC(=O)c1[nH]cnc1C(=O)N[C@H](CN)CC(C)C)NC(=O)c1nc[nH]c1C(=O)N[C@@H](C)C(=O)O		inconclusive: 89.1 µM [inhibitor, partial curve, poor fit]
CCOc1ccc(CC2c3cc(OCC)c(OCC)cc3CCN2C(=O)CN2CCN(C)CC2)cc1OCC (configuration not stated)		inconclusive: 56.2 µM [inhibitor, partial curve, poor fit]
CC(C)[C@@H]1NC(=O)[C@H](Cc2ccccc2)NC(=O)[C@@H](CC(=O)O)NC(=O)CNC(=O)[C@H](CCCNC(=N)N)NC1=O		inconclusive: 1.5 µM [inhibitor, partial curve, poor fit]
CN(C)c1ccc(/C=N/NC(=O)c2ccc(CN3CCOCC3)cc2)cc1Br		inconclusive: 89.1 µM [inhibitor, partial curve, poor fit]
COc1cccc(NC(=O)C(=O)NCC(c2ccco2)N2CCc3ccccc3C2)c1 (configuration not stated)	inactive: -9.46%	
Cc1nnc(SCC(=O)Nc2ccc(N(C)C)cc2)[nH]c1=O	inactive: -40.2%	
O=C(c1ccc(-c2ccc([N+](=O)[O-])cc2)o1)N1CCCCCCC1		inconclusive: 44.7 µM [inhibitor, partial curve, poor fit]
COC(=O)c1c(-c2cccs2)csc1NC(=O)c1ccc(C)cc1		inconclusive: 79.4 µM [inhibitor, partial curve, poor fit]
COc1cc(C(=O)OCCc2cc3ccccc3c(=O)o2)cc(OC)c1OC	inactive: 3.57%	
C=C(C)CC1N(c2cccc(OC)c2)C(=O)C2C(C(=O)O)C3C=CC21O3 (configuration not stated)		inconclusive: 89.1 µM [inhibitor, single point]
CCc1ccc(-n2c(=S)sc3c(=O)n(-c4ccccc4OC)c(=S)[nH]c32)cc1		inconclusive: 50.1 µM [inhibitor, partial curve, poor fit]
COc1ccc(C2CC(C(F)(F)F)n3nc(C(=O)NCCCn4ccnc4)cc3N2)cc1OC (configuration not stated)		inconclusive: 89.1 µM [inhibitor, single point]
CCCCC(CC(C)O)c1n[nH]c(=S)n1-c1ccccc1 (configuration not stated)		inconclusive: 100 µM [inhibitor, single point]
COc1ccc(C(C(=O)NCc2ccccc2)N(Cc2ccco2)C(=O)c2cnccn2)cc1 (configuration not stated)		inconclusive: 89.1 µM [inhibitor, single point]
COc1ccc(/C=C/C(=O)c2ccncc2)c2ccccc12		inconclusive: 50.1 µM [inhibitor, partial curve, poor fit]
CCN1C(=O)[C@H]2[C@@H](c3ccc(C)cc3)N3C(=O)N(c4ccc(OC)cc4)C(=O)[C@@]3(C)[C@H]2C1=O		inconclusive: 70.8 µM [inhibitor, partial curve, poor fit]
CC(=O)Nc1ccc(C(=O)Nc2nc(-c3ccccn3)cs2)cc1		inconclusive: 50.1 µM [inhibitor, partial curve, poor fit]
COc1ccc(/C=N/NC(=O)C(C)N(c2ccc(OC)cc2)S(C)(=O)=O)cc1 (configuration not stated)		inconclusive: 50.1 µM [inhibitor, partial curve, poor fit]

Compound	activity change, negative = inhibition	Potency
CCOC(=O)c1sc(=S)n(-c2ccc(C)cc2)c1N		inconclusive: 79.4 µM [inhibitor, partial curve, poor fit]
O=C(N/N=C/c1ccc2c(c1)OCO2)c1ccc(Cn2cc([N+](=O)[O-])cn2)o1		inconclusive: 70.8 µM [inhibitor, partial curve, poor fit]
Cc1cccc2c(=O)cc(CSCC(=O)Nc3ccc(Cl)cc3)[nH]c12		inconclusive: 100 µM [inhibitor, single point]
O=C(c1ccccc1)N1CCCC(C(=O)N2CCN(c3ccccc3)CC2)C1 (configuration not stated)		inconclusive: 17.8 µM [inhibitor, full curve, poor fit]
CCCn1c(SCC(N)=O)nnc1-c1ccco1		inconclusive: 70.8 µM [inhibitor, single point]
Cc1cc(-c2ccccc2)c(C#N)c(=S)[nH]1		inconclusive: 31.6 µM [inhibitor, full curve, poor fit]
Clc1ccc(SCCCCN2CCNCC2)cc1	inactive: -15.8% [at 11.4 µM]	
COc1ccc(C(=O)NC(=S)Nc2cccc3cc(O)ccc23)cc1OC		inconclusive: 50.1 µM [inhibitor, partial curve, poor fit]
CCn1ncc(NC(=S)Nc2ccc(OC)c(OC)c2)c1C(N)=O		inconclusive: 79.4 µM [inhibitor, partial curve, poor fit]
CCCC(=O)Nc1ccc2c(c1)C(=O)N(CCC(=O)O)C2=O	inactive: 9.4%	
CCCCCc1nnc(NC(=O)c2cccc(S(=O)(=O)N3CCOCC3)c2)s1		inconclusive: 89.1 µM [inhibitor, single point]
Cc1cccc(COCC(Cc2ccccc2)N2CCN(C(=O)c3cc(Cl)cc(Cl)c3)CCC2=O)c1 (configuration not stated)	inactive: -4.73%	
Nc1ncnc2nc(-c3ccc(N4CCOCC4)nc3)cc(-c3cccc(Br)c3)c12		inconclusive: 3.77 µM [inhibitor, full curve]
O=C(Cn1c(=O)n(Cc2ccc(C(=O)NCc3ccc4c(c3)OCO4)cc2)c(=O)c2ccccc21)Nc1ccc(F)cc1F		inconclusive: 70.8 µM [inhibitor, single point]
O=S(=O)(Nc1cc(S(=O)(=O)N2CCOCC2)ccc1O)c1ccc2c(c1)OCCCO2		inconclusive: 50.1 µM [inhibitor, partial curve, poor fit]
CCOC(=O)c1ccc2c(c1)nc(SCC(=O)c1ccco1)n2CC		inconclusive: 28.2 µM [inhibitor, full curve, poor fit]
CCc1ccc(OCC(=O)NNC(=S)NC(=O)C2CCCCC2)c(Br)c1		inconclusive: 50.1 µM [inhibitor, partial curve, poor fit]
Cc1ccc(NCc2nnc(SCC(=O)O)n2Cc2ccccc2)cc1Cl	inactive: 6.94%	
